According to the supplement of paper PMC8047034:
Counter-ions that a name gives are not always drawn. The list shows a part of the results. Single values are uncertain, as repeats are few or missing.

Tests used:
OVCAR4 = assay: log2 surviving fraction (library drug vs vehicle, or drug + carboplatin vs carboplatin alone; relative to plate median); ovarian cancer lines: OVCAR4 is platinum-sensitive and Ov4Carbo platinum-resistant; higher = more cell survival; conditions: library drug concentration 10 µM, 7 days
Ov4Carbo = assay: as above; conditions: library drug concentration 10 µM, 7 days

| Structure (SMILES) | log2 surviving fraction (OVCAR4; carboplatin co-treatment 0 µM) | log2 surviving fraction (OVCAR4; carboplatin co-treatment 5 µM) | log2 surviving fraction (Ov4Carbo; carboplatin co-treatment 0 µM) | log2 surviving fraction (Ov4Carbo; carboplatin co-treatment 5 µM) |
| --- | --- | --- | --- | --- |
| CCCN1C[C@H](CSC)C[C@@H]2c3cccc4[nH]cc(c34)C[C@H]21 [Pergolide mesylate] | -0.665 | -0.702 | -0.49 | 0.382 |
| CCn1cc(C(=O)O)c(=O)c2cc(F)c(N3CCNCC3)nc21 [Enoxacin (Penetrex)] | 0.859 | 0.507 | -0.27 | -0.121 |
| O=C(O)Cc1cc(I)c(Oc2ccc(O)c(I)c2)c(I)c1 [Tiratricol] | -0.886 | -0.0736 | -1.09 | -0.371 |
| CSc1ccc2c(c1)N(CCC1CCCCN1C)c1ccccc1S2 (stereo not drawn) [Thioridazine HCl] | -7.85 | -7.33 | -7.11 | -6.51 |
| c1ccc([C@H]2CN3CCSC3=N2)cc1 [Levamisole Hydrochloride (Ergamisol)] | -2.37 | -1 | 0.532 | -1.02 |
| CNCCC(Oc1ccc(C(F)(F)F)cc1)c1ccccc1 (stereo not drawn) [Fluoxetine  HCl] | -2.84 | -7.36 | -4.56 | -4.47 |
| N=C(N)c1ccc(OCCCCCOc2ccc(C(=N)N)cc2)cc1 [Pentamidine] | -5.44 | -4.83 | -5.82 | -5.08 |
| O=C(O[C@H]1C[C@H]2CC[C@@H](C1)[N+]21CCCC1)C(O)(c1ccccc1)c1ccccc1 [Trospium chloride (Sanctura)] | 0.136 | 0.387 | -0.9 | 0.155 |
| Cc1ccc(C(=O)c2cc(O)c(O)c([N+](=O)[O-])c2)cc1 [Tolcapone] | 0.425 | 0.527 | 1.39 | 1.25 |
| Cc1cnc(NC(=O)C2=C(O)c3ccccc3S(=O)(=O)N2C)s1 [Meloxicam (Mobic)] | 0.779 | 0.42 | 0.0599 | 0.739 |
| CC(C)N(CCNC(=O)CN1CCCC1=O)C(C)C [Pramiracetam] | 0.345 | 0.593 | 0.922 | 0.0614 |
| CC(=O)OCC(CCn1cnc2cnc(N)nc21)COC(C)=O [Famciclovir (Famvir)] | -0.232 | 0.032 | 0.107 | 0.473 |
| CCOC(=O)N1CCC(=C2c3ccc(Cl)cc3CCc3cccnc32)CC1 [Loratadine] | -0.568 | -0.276 | 0.556 | -2.91 |
| O=c1[nH]c(=O)n([C@H]2C[C@H](O)[C@@H](CO)O2)cc1F [Floxuridine] | -2.32 | -3.59 | -2.95 | -2.51 |
| CCN1CC(CCN2CCOCC2)C(c2ccccc2)(c2ccccc2)C1=O (stereo not drawn) [Doxapram HCl] | 0.193 | 0.282 | 0.109 | 0.997 |
| CC(=O)Nc1ccccc1 [Acetanilide (Antifebrin)] | -0.381 | -0.135 | 0.253 | 0.746 |
| COc1cc2c(cc1OC)CC(=O)N(CCCN(C)C[C@H]1Cc3cc(OC)c(OC)cc31)CC2 [Ivabradine HCl (Procoralan)] | 1.13 | 0.277 | 1.05 | 0.129 |
| Cc1ccc(C(=O)Nc2ccc(CN3CCN(C)CC3)c(C(F)(F)F)c2)cc1C#Cc1cnc2cccnn12 | -8.68 | -7.71 | -8.44 | -7.48 |
| CCC1(c2cccc(O)c2)CCCCN(C)C1 (stereo not drawn) [Meptazinol HCl] | -2.05 | -0.253 | -0.0309 | 0.412 |

| Structure (SMILES) | log2 surviving fraction (OVCAR4; carboplatin co-treatment 0 µM) | log2 surviving fraction (OVCAR4; carboplatin co-treatment 5 µM) | log2 surviving fraction (Ov4Carbo; carboplatin co-treatment 0 µM) | log2 surviving fraction (Ov4Carbo; carboplatin co-treatment 5 µM) |
| --- | --- | --- | --- | --- |
| NNc1nncc2ccccc12 [Hydralazine hydrochloride] | 0.202 | 0.444 | 0.0876 | 0.559 |
| CC(C)(C(=O)O)c1ccc(C(O)CCCN2CCC(C(O)(c3ccccc3)c3ccccc3)CC2)cc1 (stereo not drawn) [Fexofenadine HCl] | -0.645 | 0.665 | -0.146 | -0.191 |
| COc1ccc(-n2nc(C(N)=O)c3c2C(=O)N(c2ccc(N4CCCCC4=O)cc2)CC3)cc1 [Apixaban] | -0.498 | 0.107 | -0.846 | -0.294 |
| NCCCCCC(=O)O [Aminocaproic acid (Amicar)] | -8.08 | 0.458 | 0.781 | 0.0123 |
| COc1ccccc1N1CCN(CCCNc2cc(=O)n(C)c(=O)n2C)CC1 [Urapidil HCl] | 1.1 | 0.552 | -0.712 | 1.16 |
| CCCCN(CCCC)CCCOC(=O)c1ccc(N)cc1 [Butacaine] | 0.217 | 0.163 | -1.11 | 0.724 |
| COc1ccc(C(=O)CC(=O)c2ccc(C(C)(C)C)cc2)cc1 [Avobenzone (Parsol 1789)] | 0.291 | -0.14 | 0.262 | 0.304 |
| O=P(O)(O)C(Cl)(Cl)P(=O)(O)O [Clodronate Disodium] | -0.0646 | 0.989 | 1.05 | 1.1 |
| CCC(COC(=O)c1cc(OC)c(OC)c(OC)c1)(c1ccccc1)N(C)C (stereo not drawn) [Trimebutine] | 0.372 | -1.08 | 0.574 | -0.457 |
| CCOc1cc(N)c(Cl)cc1C(=O)NCC1CN(Cc2ccc(F)cc2)CCO1 (stereo not drawn) [Mosapride citrate] | 0.03 | 1.15 | 0.963 | 0.181 |
| C[C@H]1O[C@@H](n2cc(F)c(=O)[nH]c2=O)[C@H](O)[C@@H]1O [Doxifluridine] | 0.422 | -0.109 | -0.369 | -0.222 |
| CC(C)n1c(/C=C/C(O)CC(O)CC(=O)O)c(-c2ccc(F)cc2)c2ccccc21 (stereo not drawn) [Fluvastatin sodium (Lescol)] | -5.65 | -4.29 | -4.17 | -3.32 |
| CC(C)(Oc1ccc(CCNC(=O)c2ccc(Cl)cc2)cc1)C(=O)O [Bezafibrate] | 0.276 | 0.145 | -0.28 | 0.289 |
| Nc1ccc(C(=O)NCC(=O)O)cc1 [Sodium 4-aminohippurate Hydrate] | -2.11 | 1.81 | -0.657 | -1.83 |
| Cc1nnc(C(C)C)n1C1C[C@H]2CC[C@@H](C1)N2CC[C@H](NC(=O)C1CCC(F)(F)CC1)c1ccccc1 (stereo in doubt) [Maraviroc] | 0.377 | 1.73 | 0.638 | 1.64 |
| NS(=O)(=O)c1cc2c(cc1C(F)(F)F)NC(Cc1ccccc1)NS2(=O)=O (stereo not drawn) [Bendroflumethiazide] | 0.695 | -7.06 | -0.76 | 2.08 |
| C=C1c2cccc(O)c2C(=O)C2=C(O)[C@]3(O)C(=O)C(C(N)=O)=C(O)[C@@H](N(C)C)[C@@H]3[C@@H](O)[C@H]12 [Methacycline hydrochloride (Physiomycine)] | -0.947 | -0.238 | -0.0293 | -0.45 |
| CN(C)C(=O)Oc1cccc([N+](C)(C)C)c1 [Neostigmine bromide (Prostigmin)] | 0.0734 | -0.117 | -0.0207 | -0.201 |
| COC(=O)C1=C(C)NC(C)=C(C(=O)OC2CCCN(Cc3ccccc3)C2)C1c1cccc([N+](=O)[O-])c1 (stereo not drawn) [Benidipine hydrochloride] | -1.6 | -0.115 | -1.4 | -1.82 |

| Structure (SMILES) | log2 surviving fraction (OVCAR4; carboplatin co-treatment 0 µM) | log2 surviving fraction (OVCAR4; carboplatin co-treatment 5 µM) | log2 surviving fraction (Ov4Carbo; carboplatin co-treatment 0 µM) | log2 surviving fraction (Ov4Carbo; carboplatin co-treatment 5 µM) |
| --- | --- | --- | --- | --- |
| c1ccc2nc(N3CCNCC3)ccc2c1 [Quipazine Maleate] | -0.297 | -1.43 | 0.0734 | 0.33 |
| C[C@@]12C[C@@]3(O)O[C@@H](O1)[C@]1(COC(=O)c4ccccc4)[C@H]3C[C@@]12O[C@@H]1O[C@H](CO)[C@@H](O)[C@H](O)[C@H]1O [Paeoniflorin] | 2.33 | 2.35 | 2.22 | 1.22 |
| O=C(O)c1ccc(NC(=O)[C@H](Cc2ccc(O)cc2)NC(=O)c2ccccc2)cc1 [Bentiromide] | 0.481 | 0.116 | 0.328 | 1.38 |
| Cc1ccc(C(=O)C(C)CN2CCCCC2)cc1 (stereo not drawn) [Tolperisone HCl] | 0.6 | -0.249 | 0.191 | -1.98 |
| COc1ccc2[nH]c([S+]([O-])Cc3ncc(C)c(OC)c3C)nc2c1 (stereo not drawn) [Omeprazole (Prilosec)] | 0.579 | 0.331 | 0.857 | -0.456 |
| CNC(=O)CN(CCN(CCN(CC(=O)O)CC(=O)NC)CC(=O)O)CC(=O)O.O.[Gd] [Gadodiamide (Omniscan)] | 0.274 | 0.983 | -0.204 | 0.243 |
| CS(=O)(=O)c1ccc([C@@H](O)[C@@H](CF)NC(=O)C(Cl)Cl)cc1 [Florfenicol] | -1.02 | -0.916 | -1.49 | -2.55 |
| c1ccc2c(c1)sc1ccccc12 [Dibenzothiophene] | 0.152 | -0.158 | -0.645 | -1.13 |
| CNCCCC12CCC(c3ccccc31)c1ccccc12 [Maprotiline hydrochloride] | -1.98 | -1.4 | -1 | -1.3 |
| COCCCC/C(=N\OCCN)c1ccc(C(F)(F)F)cc1 [Fluvoxamine maleate] | -2.48 | -0.827 | -1.95 | -2.82 |
| C[C@@H]1C[C@H]2[C@@H]3CCC4=CC(=O)C=C[C@]4(C)[C@@]3(Cl)[C@@H](O)C[C@]2(C)[C@@]1(OC(=O)c1ccco1)C(=O)CCl [Mometasone furoate] | -2.91 | -3.3 | -2.49 | -1.76 |
| Cl.N=C(N)NCCC[C@H](N)C(=O)O [L-Arginine HCl] | 0.331 | 0.993 | -0.579 | -0.42 |
| CCOC(=O)[C@H](CCc1ccccc1)N[C@@H](C)C(=O)N1CCC[C@H]1C(=O)O [Enalapril maleate (Vasotec)] | -8.54 | 0.116 | 0.958 | 0.608 |
| NC(=O)N/N=C/c1ccc([N+](=O)[O-])o1 [Nitrofurazone (Nitrofural)] | 1.29 | 0.817 | -1.22 | -0.363 |
| CCC[S+]([O-])c1ccc2[nH]c(NC(=O)OC)nc2c1 (stereo not drawn) [Albendazole Oxide (Ricobendazole)] | -2.04 | -1.64 | -1.88 | -0.706 |
| O=C1CN2Cc3c(ccc(Cl)c3Cl)N=C2N1 [Anagrelide HCl] | 0.43 | -0.0662 | -0.532 | -0.557 |
| CC(N/C(=N\C#N)Nc1ccncc1)C(C)(C)C (stereo not drawn) [Pinacidil] | 0.0127 | 0.123 | -0.0944 | 0.735 |
| O=C(O)COCCN1CCN(C(c2ccccc2)c2ccc(Cl)cc2)CC1 (stereo not drawn) [Cetirizine Dihydrochloride] | 1.21 | 0.574 | 0.12 | -0.27 |
| O=c1[nH]c(=O)n([C@H]2C[C@H](O)[C@@H](CO)O2)cc1C(F)(F)F [Trifluridine (Viroptic)] | -1.44 | -7.06 | -2.59 | -3.19 |
